Sequences and labels used below:
T1: intermediate affinity IL-2 receptor IL-2Rβγ on human NK cells (human, UniProt P14784 27-551; P31785 23-369)
T1 sequence (looked up) 1: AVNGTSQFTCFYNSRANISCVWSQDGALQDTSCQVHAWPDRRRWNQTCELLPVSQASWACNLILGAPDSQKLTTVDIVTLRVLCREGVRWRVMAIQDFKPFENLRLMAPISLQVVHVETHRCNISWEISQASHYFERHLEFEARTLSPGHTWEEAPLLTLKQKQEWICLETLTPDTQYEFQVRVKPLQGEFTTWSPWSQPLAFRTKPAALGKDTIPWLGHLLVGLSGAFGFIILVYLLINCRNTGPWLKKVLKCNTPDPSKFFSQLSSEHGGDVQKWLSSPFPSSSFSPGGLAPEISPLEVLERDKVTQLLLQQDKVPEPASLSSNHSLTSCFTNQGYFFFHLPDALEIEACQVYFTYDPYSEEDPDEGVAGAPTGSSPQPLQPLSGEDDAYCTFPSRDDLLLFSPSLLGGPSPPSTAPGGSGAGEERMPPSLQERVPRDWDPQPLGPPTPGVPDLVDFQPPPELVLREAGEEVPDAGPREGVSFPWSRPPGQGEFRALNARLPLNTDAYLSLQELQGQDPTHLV
T1 sequence (looked up) 2: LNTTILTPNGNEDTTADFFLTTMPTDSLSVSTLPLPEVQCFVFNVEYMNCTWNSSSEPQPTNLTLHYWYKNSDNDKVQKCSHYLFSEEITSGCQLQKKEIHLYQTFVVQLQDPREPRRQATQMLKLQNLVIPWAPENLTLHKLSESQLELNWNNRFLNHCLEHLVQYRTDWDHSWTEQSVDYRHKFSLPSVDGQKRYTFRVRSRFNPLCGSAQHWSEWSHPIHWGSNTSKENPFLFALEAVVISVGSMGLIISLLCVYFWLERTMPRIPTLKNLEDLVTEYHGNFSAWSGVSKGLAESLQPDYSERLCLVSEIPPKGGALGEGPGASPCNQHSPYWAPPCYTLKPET

T2: high affinity IL-2 receptor IL-2Rαβγ on human PHA-blasts (activated T cells) (human, UniProt P01589 22-272; P14784 27-551; P31785 23-369)
T2 sequence (looked up) 1: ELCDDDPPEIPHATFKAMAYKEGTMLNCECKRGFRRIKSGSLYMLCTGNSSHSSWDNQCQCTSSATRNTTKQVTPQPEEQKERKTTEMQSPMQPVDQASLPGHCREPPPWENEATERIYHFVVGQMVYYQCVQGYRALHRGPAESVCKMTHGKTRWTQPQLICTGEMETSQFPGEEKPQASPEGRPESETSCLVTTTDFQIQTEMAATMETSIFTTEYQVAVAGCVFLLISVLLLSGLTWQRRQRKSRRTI
T2 sequence (looked up) 2: T1 sequence (looked up) 1
T2 sequence (looked up) 3: T1 sequence (looked up) 2

B1: human IL-2 mutein Q126M (ligand)
chain: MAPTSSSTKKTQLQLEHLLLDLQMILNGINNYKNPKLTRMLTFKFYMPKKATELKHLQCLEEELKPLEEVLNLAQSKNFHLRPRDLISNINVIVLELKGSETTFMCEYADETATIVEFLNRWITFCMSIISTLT
B2: human IL-2 mutein N88K (ligand)
chain: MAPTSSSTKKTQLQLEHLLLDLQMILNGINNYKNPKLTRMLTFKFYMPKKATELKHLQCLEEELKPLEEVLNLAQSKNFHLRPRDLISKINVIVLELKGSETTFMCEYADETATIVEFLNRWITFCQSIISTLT
B3: human IL-2 mutein Q126H (ligand)
chain: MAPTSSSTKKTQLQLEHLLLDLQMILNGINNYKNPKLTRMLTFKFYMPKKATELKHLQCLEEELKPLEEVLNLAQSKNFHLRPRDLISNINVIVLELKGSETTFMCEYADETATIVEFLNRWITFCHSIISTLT
B4: human IL-2 mutein D20V (ligand)
chain: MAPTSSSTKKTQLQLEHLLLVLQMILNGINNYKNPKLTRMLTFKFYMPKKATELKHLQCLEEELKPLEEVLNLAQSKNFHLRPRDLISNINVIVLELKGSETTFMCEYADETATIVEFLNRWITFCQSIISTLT
B5: human IL-2 mutein Q126K (ligand)
chain: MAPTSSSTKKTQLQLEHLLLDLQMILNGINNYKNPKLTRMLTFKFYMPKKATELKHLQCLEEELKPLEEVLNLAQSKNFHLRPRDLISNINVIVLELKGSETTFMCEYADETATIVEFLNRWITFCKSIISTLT
B6: human IL-2 mutein Q126Y (ligand)
chain: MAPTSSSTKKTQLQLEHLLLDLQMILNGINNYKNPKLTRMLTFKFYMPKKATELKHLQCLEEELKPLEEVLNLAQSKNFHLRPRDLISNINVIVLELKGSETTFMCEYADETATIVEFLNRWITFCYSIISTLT
B7: human IL-2 mutein Q126R (ligand)
chain: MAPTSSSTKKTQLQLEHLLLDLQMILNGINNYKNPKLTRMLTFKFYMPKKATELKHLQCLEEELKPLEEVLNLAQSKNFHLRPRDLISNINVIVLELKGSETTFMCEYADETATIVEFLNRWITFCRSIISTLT
B8: human IL-2 mutein N88S (ligand)
chain: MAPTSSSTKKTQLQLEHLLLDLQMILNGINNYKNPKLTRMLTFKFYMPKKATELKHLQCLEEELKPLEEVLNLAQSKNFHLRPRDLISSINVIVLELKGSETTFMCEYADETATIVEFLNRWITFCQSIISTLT
B9: human IL-2 mutein N88M (ligand)
chain: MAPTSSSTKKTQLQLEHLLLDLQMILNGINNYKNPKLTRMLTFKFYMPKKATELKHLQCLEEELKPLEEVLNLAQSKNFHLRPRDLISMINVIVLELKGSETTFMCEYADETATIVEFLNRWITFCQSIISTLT
B10: human IL-2 mutein Q126V (ligand)
chain: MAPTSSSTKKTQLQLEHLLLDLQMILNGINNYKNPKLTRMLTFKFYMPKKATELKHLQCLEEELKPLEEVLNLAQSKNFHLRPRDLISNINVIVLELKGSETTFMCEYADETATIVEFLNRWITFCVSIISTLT
B11: human IL-2 mutein D20A (ligand)
chain: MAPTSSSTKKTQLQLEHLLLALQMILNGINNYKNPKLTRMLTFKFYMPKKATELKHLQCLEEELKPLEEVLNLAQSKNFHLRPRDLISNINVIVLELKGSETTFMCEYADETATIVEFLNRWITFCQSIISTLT
B12: human IL-2 mutein N88T (ligand)
chain: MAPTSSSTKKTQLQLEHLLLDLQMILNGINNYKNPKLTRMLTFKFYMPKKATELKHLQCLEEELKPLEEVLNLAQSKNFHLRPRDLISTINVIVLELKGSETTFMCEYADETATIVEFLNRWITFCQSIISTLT
B13: human IL-2 mutein N88V (ligand)
chain: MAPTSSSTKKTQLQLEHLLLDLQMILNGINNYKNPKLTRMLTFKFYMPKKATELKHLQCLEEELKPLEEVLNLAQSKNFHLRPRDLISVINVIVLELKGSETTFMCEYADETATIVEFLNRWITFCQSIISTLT
B14: human IL-2 mutein Q126G (ligand)
chain: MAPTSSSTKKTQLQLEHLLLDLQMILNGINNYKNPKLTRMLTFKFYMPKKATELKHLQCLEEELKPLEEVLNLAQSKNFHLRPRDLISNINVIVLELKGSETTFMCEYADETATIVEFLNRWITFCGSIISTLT
B15: human IL-2 mutein Q126D (ligand)
chain: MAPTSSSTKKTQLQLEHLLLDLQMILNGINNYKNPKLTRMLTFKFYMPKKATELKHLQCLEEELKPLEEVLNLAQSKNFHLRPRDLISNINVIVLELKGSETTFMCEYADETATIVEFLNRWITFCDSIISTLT
B16: human IL-2 mutein Q126P (ligand)
chain: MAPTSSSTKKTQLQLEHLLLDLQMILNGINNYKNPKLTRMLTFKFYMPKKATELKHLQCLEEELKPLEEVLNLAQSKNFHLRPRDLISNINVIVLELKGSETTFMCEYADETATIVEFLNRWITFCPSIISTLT
B17: human IL-2 mutein D20S (ligand)
chain: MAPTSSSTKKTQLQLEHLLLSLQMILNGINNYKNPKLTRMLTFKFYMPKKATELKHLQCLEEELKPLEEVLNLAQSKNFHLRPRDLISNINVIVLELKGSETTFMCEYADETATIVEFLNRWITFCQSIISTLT
B18: human IL-2 mutein Q126T (ligand)
chain: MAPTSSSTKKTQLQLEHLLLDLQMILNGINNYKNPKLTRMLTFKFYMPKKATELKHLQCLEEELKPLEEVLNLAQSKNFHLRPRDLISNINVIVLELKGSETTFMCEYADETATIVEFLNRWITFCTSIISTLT
B19: human IL-2 mutein Q126S (ligand)
chain: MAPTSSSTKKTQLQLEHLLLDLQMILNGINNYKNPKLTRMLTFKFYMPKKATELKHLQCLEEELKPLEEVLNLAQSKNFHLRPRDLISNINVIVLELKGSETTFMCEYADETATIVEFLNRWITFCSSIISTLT
B20: human IL-2 mutein D20T (ligand)
chain: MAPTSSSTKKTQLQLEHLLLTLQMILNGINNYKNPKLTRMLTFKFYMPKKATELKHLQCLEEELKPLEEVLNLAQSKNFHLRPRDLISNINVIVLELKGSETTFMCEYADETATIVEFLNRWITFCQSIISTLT
B21: human IL-2 mutein D20R (ligand)
chain: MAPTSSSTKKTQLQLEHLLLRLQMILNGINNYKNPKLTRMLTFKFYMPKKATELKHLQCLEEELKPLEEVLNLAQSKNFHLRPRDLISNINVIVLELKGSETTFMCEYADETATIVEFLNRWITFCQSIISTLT
B22: human IL-2 mutein Q126F (ligand)
chain: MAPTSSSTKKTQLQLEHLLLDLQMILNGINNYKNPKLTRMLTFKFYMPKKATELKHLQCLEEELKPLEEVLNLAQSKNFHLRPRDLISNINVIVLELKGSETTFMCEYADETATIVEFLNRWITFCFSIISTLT
B23: human IL-2 mutein D20K (ligand)
chain: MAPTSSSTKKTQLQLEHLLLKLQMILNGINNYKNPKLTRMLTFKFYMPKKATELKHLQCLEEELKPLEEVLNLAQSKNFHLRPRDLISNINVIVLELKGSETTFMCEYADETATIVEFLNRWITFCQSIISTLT
B24: human IL-2 mutein D20M (ligand)
chain: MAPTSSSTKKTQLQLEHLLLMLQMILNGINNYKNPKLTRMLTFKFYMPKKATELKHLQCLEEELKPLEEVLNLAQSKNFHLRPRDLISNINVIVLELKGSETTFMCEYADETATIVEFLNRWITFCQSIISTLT
B25: human IL-2 mutein D20L (ligand)
chain: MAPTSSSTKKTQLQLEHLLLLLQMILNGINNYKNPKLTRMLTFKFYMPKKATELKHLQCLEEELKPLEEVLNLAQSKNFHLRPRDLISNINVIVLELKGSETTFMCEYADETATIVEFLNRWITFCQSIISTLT
B26: human IL-2 mutein N88F (ligand)
chain: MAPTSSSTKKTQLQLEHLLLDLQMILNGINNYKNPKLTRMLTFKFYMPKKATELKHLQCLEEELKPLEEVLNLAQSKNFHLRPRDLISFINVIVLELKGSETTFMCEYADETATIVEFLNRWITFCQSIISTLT
B27: human IL-2 mutein N88E (ligand)
chain: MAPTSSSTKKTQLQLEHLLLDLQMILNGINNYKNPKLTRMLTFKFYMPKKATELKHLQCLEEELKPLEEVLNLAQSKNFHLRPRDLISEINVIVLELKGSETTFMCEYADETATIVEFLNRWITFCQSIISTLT
B28: human IL-2 mutein Q126I (ligand)
chain: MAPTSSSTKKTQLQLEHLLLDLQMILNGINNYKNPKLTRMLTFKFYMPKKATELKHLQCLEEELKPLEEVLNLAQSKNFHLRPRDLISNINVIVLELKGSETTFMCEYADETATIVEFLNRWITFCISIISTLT
B29: human IL-2 mutein N88Y (ligand)
chain: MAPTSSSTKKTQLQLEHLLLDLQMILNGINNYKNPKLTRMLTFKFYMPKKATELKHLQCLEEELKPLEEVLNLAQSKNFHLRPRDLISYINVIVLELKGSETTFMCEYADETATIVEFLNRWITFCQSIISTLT
B30: human IL-2 mutein N88A (ligand)
chain: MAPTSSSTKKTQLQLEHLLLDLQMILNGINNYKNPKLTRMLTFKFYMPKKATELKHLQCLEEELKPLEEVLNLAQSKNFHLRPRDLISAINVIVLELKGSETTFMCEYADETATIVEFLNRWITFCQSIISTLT
B31: human IL-2 mutein Q126A (ligand)
chain: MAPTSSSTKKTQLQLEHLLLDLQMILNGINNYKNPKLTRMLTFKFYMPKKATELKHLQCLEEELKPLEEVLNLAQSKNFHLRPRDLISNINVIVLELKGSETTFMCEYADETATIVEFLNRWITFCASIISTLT
B32: human IL-2 mutein Q126W (ligand)
chain: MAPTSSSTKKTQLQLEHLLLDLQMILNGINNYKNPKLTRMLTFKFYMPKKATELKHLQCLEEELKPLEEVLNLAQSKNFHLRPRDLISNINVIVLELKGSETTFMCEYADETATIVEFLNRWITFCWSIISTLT
B33: human IL-2 mutein Q126N (ligand)
chain: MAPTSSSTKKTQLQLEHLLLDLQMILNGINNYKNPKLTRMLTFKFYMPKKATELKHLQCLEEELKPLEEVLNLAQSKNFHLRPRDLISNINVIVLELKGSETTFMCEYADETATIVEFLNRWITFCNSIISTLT
B34: human IL-2 mutein D20Q (ligand)
chain: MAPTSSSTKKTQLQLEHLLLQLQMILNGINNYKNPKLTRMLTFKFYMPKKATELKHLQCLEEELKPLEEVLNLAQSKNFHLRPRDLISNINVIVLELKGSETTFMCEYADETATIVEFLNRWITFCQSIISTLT
B35: human IL-2 mutein N88L (ligand)
chain: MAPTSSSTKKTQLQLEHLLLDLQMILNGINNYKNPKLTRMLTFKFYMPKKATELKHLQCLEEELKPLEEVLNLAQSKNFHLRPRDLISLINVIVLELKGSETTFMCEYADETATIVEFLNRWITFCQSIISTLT
B36: human IL-2 mutein D20N (ligand)
chain: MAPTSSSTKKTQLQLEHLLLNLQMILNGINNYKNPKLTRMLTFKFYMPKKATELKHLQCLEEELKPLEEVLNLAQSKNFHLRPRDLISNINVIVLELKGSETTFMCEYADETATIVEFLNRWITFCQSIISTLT
B37: human IL-2 mutein N88H (ligand)
chain: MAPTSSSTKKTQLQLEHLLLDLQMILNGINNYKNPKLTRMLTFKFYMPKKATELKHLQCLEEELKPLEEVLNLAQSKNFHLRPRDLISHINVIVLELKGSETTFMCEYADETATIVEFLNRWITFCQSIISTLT
B38: human IL-2 mutein D20Y (ligand)
chain: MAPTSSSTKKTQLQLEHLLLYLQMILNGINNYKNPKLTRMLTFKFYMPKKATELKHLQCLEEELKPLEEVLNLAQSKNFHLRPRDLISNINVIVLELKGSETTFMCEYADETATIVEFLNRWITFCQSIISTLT
B39: human IL-2 mutein N88W (ligand)
chain: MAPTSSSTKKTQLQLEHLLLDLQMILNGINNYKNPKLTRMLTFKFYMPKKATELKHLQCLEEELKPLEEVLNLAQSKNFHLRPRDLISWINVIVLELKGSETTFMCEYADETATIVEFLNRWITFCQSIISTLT

One assay concerns the target T1, intermediate affinity IL-2 receptor …. Put plainly: cell-based or functional assay.
Regarding B1, the “relative activity, NK cell (NK cell proliferation)” value (“relative activity, NK cell” for short) is 2.19 relative to wt IL-2 (EC50).
Same read-out and setting: in the case of B2 it was 0.00032 relative to wt IL-2 (EC50); in that of B3, 0.739 relative to wt IL-2 (EC50); in that of B4, 9e-05 relative to wt IL-2 (EC50).
Same read-out and setting: under B5 stands 1 relative to wt IL-2 (EC50); under B6, 0.0885 relative to wt IL-2 (EC50); under B7, 0.364 relative to wt IL-2 (EC50).
As for B8, the “relative activity, NK cell” value was 0.16 relative to wt IL-2 (EC50).
On the same count and under the same terms, under B9 stands 0.001 relative to wt IL-2 (EC50).
Still for that read-out and setting: under B10 stands 0.00302 relative to wt IL-2 (EC50).
Still for that read-out and setting: under B11 stands 5e-05 relative to wt IL-2 (EC50); under B12, 0.00127 relative to wt IL-2 (EC50).
On to B13, for which the “relative activity, NK cell” value is 0.001 relative to wt IL-2 (EC50).
Same read-out and setting: under B14 stands 0.00556 relative to wt IL-2 (EC50); under B15, 0.00061 relative to wt IL-2 (EC50); under B16, 0.00011 relative to wt IL-2 (EC50).
Turning to B17, the “relative activity, NK cell” value was 0.00038 relative to wt IL-2 (EC50).
Still for that read-out and setting: in the case of B18 it was 3e-05 relative to wt IL-2 (EC50); in that of B19, 0.00103 relative to wt IL-2 (EC50); in that of B20, 1 relative to wt IL-2 (EC50).
Take B21: the “relative activity, NK cell” value was 1e-05 relative to wt IL-2 (EC50).
Consider B22, for which the “relative activity, NK cell” value was 0.0275 relative to wt IL-2 (EC50).
Turning to B23, the “relative activity, NK cell” value was 0.00019 relative to wt IL-2 (EC50).
Same read-out and setting: under B24 stands 0.00011 relative to wt IL-2 (EC50); under B25, 1e-05 relative to wt IL-2 (EC50); under B26, 0.001 relative to wt IL-2 (EC50).
On to B27, for which the “relative activity, NK cell” value was 0.00115 relative to wt IL-2 (EC50).
The same measure, in the same setting: under B28 stands 3e-05 relative to wt IL-2 (EC50); under B29, 0.001 relative to wt IL-2 (EC50); under B30, 0.01 relative to wt IL-2 (EC50).
Take B31: the “relative activity, NK cell” value was 0.0581 relative to wt IL-2 (EC50).
Still for that read-out and setting: under B32 stands 0.2 relative to wt IL-2 (EC50); under B33, 0.65 relative to wt IL-2 (EC50); under B34, 0.00032 relative to wt IL-2 (EC50).
Same read-out and setting: under B35 stands 0.001 relative to wt IL-2 (EC50); under B36, 0.00019 relative to wt IL-2 (EC50).
On the same count and under the same terms, under B37 stands 0.001 relative to wt IL-2 (EC50); under B38, 7e-05 relative to wt IL-2 (EC50); under B39, 0.001 relative to wt IL-2 (EC50).

For a further assay, the target named is T2, high affinity IL-2 receptor IL-2Rαβγ on …. Put plainly: cell-based or functional assay.
Consider B1, for which the “relative activity, T cell (PHA-blast proliferation)” value (“relative activity, T cell” for short) was 19.9 relative to wt IL-2 (EC50).
In the case of B2, the “relative activity, T cell” value was 0.0001 relative to wt IL-2 (EC50).
On to B3, for which the “relative activity, T cell” value was 0.0222 relative to wt IL-2 (EC50).
The same measure, in the same setting: in the case of B4 it was 0.00093 relative to wt IL-2 (EC50).
On the same count and under the same terms, under B5 stands 1 relative to wt IL-2 (EC50); under B6, 0.885 relative to wt IL-2 (EC50); under B7, 4.03 relative to wt IL-2 (EC50).
Same read-out and setting: under B9 stands 0.25 relative to wt IL-2 (EC50); under B10, 1.01 relative to wt IL-2 (EC50); under B11, 0.00024 relative to wt IL-2 (EC50).
For B12, the “relative activity, T cell” value is 0.5 relative to wt IL-2 (EC50).
On the same count and under the same terms, in the case of B13 it was 0.0667 relative to wt IL-2 (EC50).
The same measure, in the same setting: in the case of B14 it was 0.556 relative to wt IL-2 (EC50); in that of B15, 0.146 relative to wt IL-2 (EC50); in that of B16, 0.00032 relative to wt IL-2 (EC50).
Turning to B17, the “relative activity, T cell” value was 0.0664 relative to wt IL-2 (EC50).
The same measure, in the same setting: under B18 stands 0.0001 relative to wt IL-2 (EC50); under B19, 0.0342 relative to wt IL-2 (EC50); under B20, 1 relative to wt IL-2 (EC50).
As to B21, the “relative activity, T cell” value is 0.00018 relative to wt IL-2 (EC50).
The same measure, in the same setting: in the case of B22 it was 0.874 relative to wt IL-2 (EC50).
Consider B23, for which the “relative activity, T cell” value was 0.063 relative to wt IL-2 (EC50).
For the molecule B24, the “relative activity, T cell” value was 0.0537 relative to wt IL-2 (EC50).
As to B25, the “relative activity, T cell” value was 0.00063 relative to wt IL-2 (EC50).
Same read-out and setting: in the case of B26 it was 0.0222 relative to wt IL-2 (EC50); in that of B27, 0.0117 relative to wt IL-2 (EC50); in that of B28, 0.001 relative to wt IL-2 (EC50).
Still for that read-out and setting: under B29 stands 0.008 relative to wt IL-2 (EC50).
Still for that read-out and setting: in the case of B30 it was 0.5 relative to wt IL-2 (EC50).
On to B31, for which the “relative activity, T cell” value is 0.0174 relative to wt IL-2 (EC50).
The same measure, in the same setting: under B32 stands 0.2 relative to wt IL-2 (EC50).
Turning to B33, the “relative activity, T cell” value is 6.58 relative to wt IL-2 (EC50).
Same read-out and setting: in the case of B34 it was 0.0318 relative to wt IL-2 (EC50); in that of B35, 0.004 relative to wt IL-2 (EC50).
On the same count and under the same terms, in the case of B36 it was 0.03 relative to wt IL-2 (EC50); in that of B37, 0.001 relative to wt IL-2 (EC50); in that of B38, 0.0659 relative to wt IL-2 (EC50).
Still for that read-out and setting: under B39 stands 0.001 relative to wt IL-2 (EC50).

For the origin of these results see patent US20040175357A1 (Bayer, published 2004).
